Measurements reported in US4146717A, “Nitroquinazolinone compounds having antiviral properties” (priority 1974, dated 1979).

Tested on: Influenza virus FM-1 strain
Details: 200 mg/kg subcutaneously, 14 days observation, control 0/8

Structure (SMILES): O=c1nc(-c2ccccc2)c2cc([N+](=O)[O-])ccc2n1CC1CCCCO1 (stereo not shown) [compound 5]
- Survival rate: 4/8
